# According to PubChem BioAssay AID1768 (National Center for Advancing Translational Sciences (NCATS), 2009):
# Among all 270,000 compounds or so, about 620 (0.23%) were called active. The inconclusive results got no clear call from the source; some entries with a clear call stand among them for comparison. The call rests on the fitted dose curve; in most records, active means well fitted inhibition curve with a large enough effect in the polarisation, with a control signal flat (not every such curve was filed as active); inconclusive means small, poorly fitted or top-dose-only effect, or effect the other way, or a change in a side signal; inactive means no such curve, though single readings can be large or run the other way; the % refers to the polarisation. Potencies beside an inconclusive call are fits to weak or partial responses and may not hold up. A note “side channel” means that the fit belongs to a control or component signal, not to the main read-out.
# Biological target: Menin (Homo sapiens) (UniProt O00255)
# Sequence of UniProt O00255 (O00255 whole entry, looked up): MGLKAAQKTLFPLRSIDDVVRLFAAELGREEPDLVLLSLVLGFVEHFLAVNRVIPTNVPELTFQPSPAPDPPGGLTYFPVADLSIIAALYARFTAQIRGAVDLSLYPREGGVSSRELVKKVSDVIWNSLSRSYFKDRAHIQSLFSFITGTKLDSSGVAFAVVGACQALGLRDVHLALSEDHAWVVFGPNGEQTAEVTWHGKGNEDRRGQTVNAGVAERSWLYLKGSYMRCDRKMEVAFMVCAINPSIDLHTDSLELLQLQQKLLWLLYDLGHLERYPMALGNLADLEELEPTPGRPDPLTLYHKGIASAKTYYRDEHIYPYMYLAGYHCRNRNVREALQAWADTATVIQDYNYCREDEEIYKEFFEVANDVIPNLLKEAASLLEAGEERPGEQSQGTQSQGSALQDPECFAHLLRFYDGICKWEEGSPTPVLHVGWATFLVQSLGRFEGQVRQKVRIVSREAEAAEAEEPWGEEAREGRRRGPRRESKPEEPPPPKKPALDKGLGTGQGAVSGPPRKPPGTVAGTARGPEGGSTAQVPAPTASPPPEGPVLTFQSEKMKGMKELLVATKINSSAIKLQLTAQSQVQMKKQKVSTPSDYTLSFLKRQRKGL
# Assay: qHTS Assay for Inhibitors Targeting the Menin-MLL Interaction in MLL Related Leukemias: Competition With Texas Red Labeled MLL-derived Mutant Peptide; on FP activity change, negative = inhibition: % of control where 0% means no effect
# Settings: fluorescence polarization; FP activity change, negative = inhibition: at 61.6 µM (top of the series)
# Potency means the concentration at half of the fitted maximal effect; tags describe the fitted curve by direction and shape or compound fluorescence and quenching.
SMILES,Potency,"FP activity change, negative = inhibition"
CN1C=C/C(=C\c2cc[n+](C)c3ccccc23)c2ccccc21,"inconclusive: 25.1 µM [inhibitor, partial curve]",
CCC(=O)N1N=C(c2ccc(C)o2)CC1c1ccc(N(C)C)cc1 (stereo not drawn),"inconclusive: 17.8 µM [fluorescent, side channel, partial curve]",
Cc1ccc2sc(NC(=O)c3ccc(N4C(=O)CCC4=O)cc3)nc2c1C,"inconclusive: 28.2 µM [inhibitor, single point]",
COc1cccc(NC(=O)CN(C)C(C)C(=O)Nc2cc([N+](=O)[O-])ccc2Cl)c1 (stereo not drawn),"inconclusive: 39.8 µM [quencher, side channel, single point]",
O=C(Nc1cc2ccccc2oc1=O)c1ccccc1,"inconclusive: 35.5 µM [fluorescent, side channel, single point]",
COc1ccc(/C=C/C(=O)NC(=S)N2CCN(c3ccccn3)CC2)cc1OC,,inactive: -9.69%
FC(F)(F)c1cccc(N/N=C/c2ccccc2)c1,"inconclusive: 25.1 µM [quencher, side channel, partial curve]",
COc1ccc(OCCn2cc(/C(N)=N/O)c3ccccc32)cc1,,inactive: 0.993%
Brc1ccccc1OCCNCc1ccccc1,"inconclusive: 17.8 µM [inhibitor, partial curve]",
O=S(=O)(Nc1c(S(=O)(=O)c2ccccc2)c2nc3ccccc3nc2n1C1CCCCC1)c1ccccc1,,inactive: -14.9%
O=c1[nH]ncc(N/N=C\c2ccc(O)cc2O)c1Cl,"inconclusive: 15.8 µM [inhibitor, single point]",
Cc1ccc2cc(NC(=O)c3ccc(C(C)(C)C)cc3)ccc2n1,"inconclusive: 25.1 µM [quencher, side channel, partial curve]",
COc1cccc(Nc2nnc(SCc3cc([N+](=O)[O-])cc4c3OCOC4)s2)c1,"inconclusive: 7.08 µM [quencher, side channel, full curve]",
CCOc1ccc(C2C(C(=O)c3cccs3)=C(O)C(=O)N2CCN2CCOCC2)cc1 (stereo not drawn),"inconclusive: 5.62 µM [inhibitor, full curve]",
O=C(CSc1nc(-c2ccccc2Cl)ns1)Nc1ccc2c(c1)OCO2,"inconclusive: 35.5 µM [quencher, side channel, single point]",
Cc1ccc(-n2c(C)cc3c2CC(C)(C)CC3=O)cc1C,"inconclusive: 12.6 µM [fluorescent, side channel, partial curve]",
Cc1c(C(c2ccc(F)cc2)c2c(C)n(C)n(-c3ccccc3)c2=O)c(=O)n(-c2ccccc2)n1C,"inconclusive: 14.1 µM [inhibitor, partial curve]",
CCCCCCn1c(C(C)NC(=O)c2ccco2)nc2ccccc21 (stereo not drawn),"inconclusive: 20 µM [fluorescent, side channel, partial curve]",
COc1ccc2c(c1)Cc1sc(NC(=O)c3cccs3)nc1-2,"inconclusive: 7.94 µM [quencher, side channel, partial curve]",
COc1ccc2[nH]c3c(c2c1)CCN1C(=O)N([C@@H](C)C(=O)NCc2ccc(C)cc2)C(=O)[C@]31C,"inconclusive: 31.6 µM [fluorescent, side channel, partial curve]",

SMILES,Potency,"FP activity change, negative = inhibition"
O=C1CC(c2cc(Br)ccc2F)c2cc3c(cc2N1)CCC3 (stereo not drawn),"inconclusive: 39.8 µM [inhibitor, single point]",
O=C(c1ccc2ccccc2c1)N1CCN(c2ccc(C(F)(F)F)cn2)CC1,"inconclusive: 39.8 µM [fluorescent, side channel, single point]",
O=[N+]([O-])c1cccc(N/N=C/c2cc([N+](=O)[O-])ccc2O)c1,"inconclusive: 25.1 µM [quencher, side channel, partial curve]",
Cc1ccc(CCNC(=O)CS(=O)Cc2nc(-c3cccc(C)c3)oc2C)cc1 (stereo not drawn),"inconclusive: 11.2 µM [fluorescent, side channel, partial curve]",
CC(=O)O[C@H]1C[C@@H]2CCC3C(CC[C@@]4(C)[C@H]3C[C@H]([N+]3(C)CCCCC3)[C@@H]4OC(C)=O)[C@@]2(C)C[C@@H]1[N+]1(C)CCCCC1 (stereo partly drawn),,inactive: -1.96%
O=S(=O)(N[C@H]1C[C@@H](NS(=O)(=O)OCC(Cl)(Cl)Cl)C2CCCCC21)OCC(Cl)(Cl)Cl (stereo partly drawn),"inconclusive: 14.1 µM [quencher, side channel, partial curve]",
O=C1OC(c2ccc(Cl)cc2)/C(=C(/O)c2ccccc2)C1=O (stereo not drawn),,inactive: 34.3%
Cc1c(N2C(=O)CS/C2=N\N=C\c2ccc(Cl)cc2)c(=O)n(-c2ccccc2)n1C,"inconclusive: 39.8 µM [inhibitor, single point]",
CCOc1cc(CNc2ccc(O)cc2)ccc1OCc1ccc(Cl)cc1Cl,"inconclusive: 39.8 µM [inhibitor, single point]",
Cc1cccc(N(CC(=O)NCCc2ccccc2)C(=O)CCC(=O)Nc2ccccn2)c1C,"inconclusive: 8.91 µM [fluorescent, side channel, full curve, poor fit]",
CCOc1cc(C(=O)Nc2ccc(N3CCOCC3)cc2)cc(Br)c1OC,"inconclusive: 28.2 µM [quencher, side channel, single point]",
Cc1cc(Nc2ccc3c(c2)OCCO3)c2cc(Cl)ccc2n1,"inconclusive: 28.2 µM [inhibitor, single point]",
O=c1c2cc3ccccc3n2cnn1Cc1ccccc1F,,inactive: 5.77%
O=C(Cn1cc(S(=O)(=O)Cc2ccccc2)c2ccccc21)Nc1ccccc1,"inconclusive: 35.5 µM [quencher, side channel, single point]",
Cc1ccc(OCc2ccc(C(=O)Nc3nccs3)o2)cc1C,"inconclusive: 12.6 µM [quencher, side channel, partial curve]",
Cc1cc(=O)[nH]c(SCC(=O)Nc2ccc(Br)cc2)c1C#N,"inconclusive: 14.1 µM [quencher, side channel, partial curve]",
CC(Nc1ccc(Cl)cc1)c1cc(Cl)ccc1O (stereo not drawn),"inconclusive: 22.4 µM [quencher, side channel, partial curve]",
CCCn1c(=O)[nH]c(=O)c2c1nc(-c1ccc(OC(F)(F)C(F)C(F)(F)F)cc1)n2CCOC (stereo not drawn),"inconclusive: 25.1 µM [fluorescent, side channel, single point]",
Cc1cc(C)c(NC(=O)Cn2c(=O)n(-c3ccc(CC(=O)NCC4CCCO4)cc3)c(=O)c3ccccc32)c(C)c1 (stereo not drawn),"inconclusive: 22.4 µM [fluorescent, side channel, single point]",
O=C(c1ccc(C(F)(F)F)cc1)N1CCCCC1,"inconclusive: 8.91 µM [inhibitor, partial curve]",

SMILES,Potency,"FP activity change, negative = inhibition"
COc1ccc(NC(=O)c2ccc(N3C(=O)C4CC=C(Cl)CC4C3=O)cc2)cc1 (stereo not drawn),"inconclusive: 12.6 µM [quencher, side channel, partial curve]",
O=C1/C(=C/c2ccco2)CCC1C1CCCC1 (stereo not drawn),"inconclusive: 39.8 µM [fluorescent, side channel, single point]",
O=C1NC(=Nc2ccc(Cl)cc2)/C(=C/c2ccco2)S1,"inconclusive: 10 µM [quencher, side channel, partial curve]",
CN(C)S(=O)(=O)c1ccc(C(=O)Nc2nnc(-c3ccc4c(c3)CCCC4)o2)cc1,"inconclusive: 17.8 µM [quencher, side channel, partial curve]",
O=C(CSCc1cccc(Br)c1)N=Nc1c(O)[nH]c2ccccc12,"inconclusive: 28.2 µM [quencher, side channel, single point]",
Nc1nonc1C(=O)NCCNCc1cc(Br)ccc1OCc1ccc(F)cc1,"inconclusive: 39.8 µM [fluorescent, side channel, single point]",
COc1ccc(C(=O)OCCc2ccc(O)cc2)cc1,,inactive: 6.01%
CCOc1cccc2c1OC(c1cc(OC)c(OC)c(OC)c1)N1N=C(c3ccc(C)o3)CC21 (stereo not drawn),"inconclusive: 28.2 µM [inhibitor, single point]",
COc1cc([N+](=O)[O-])ccc1NC(=O)CN1CCOCC1,"inconclusive: 44.7 µM [inhibitor, partial curve, poor fit]",
O=C(c1ccc(Cl)cc1)C1CCCN(Cc2cccn2-c2ccccn2)C1 (stereo not drawn),"inconclusive: 5.01 µM [fluorescent, side channel, single point]",
Cc1ccc2nc(-c3ccccc3)cn2c1,,inactive: -11.1%
Cc1ccc(C)c(S(=O)(=O)N2CCNCC2)c1,,inactive: -21.6%
CCCCOC(=O)c1ccc(NC(=O)c2nn(C)cc2Br)cc1,"inconclusive: 3.98 µM [quencher, side channel, full curve, poor fit]",
COc1cccc(/C=N/n2c(N)c(S(=O)(=O)c3cccs3)c3nc4ccccc4nc32)c1,"inconclusive: 2.82 µM [inhibitor, full curve]",
Cn1c(=O)c2cc(S(=O)(=O)NC(C(=O)NC3CCCCC3)c3ccccc3)ccc2n(C)c1=O (stereo not drawn),"inconclusive: 39.8 µM [inhibitor, single point]",
COc1ccccc1-n1nnnc1SCC(=O)Nc1ccccc1,"inconclusive: 39.8 µM [inhibitor, single point]",
CC(C)[C@H](NC(=O)OCc1ccccc1)C(=O)OCc1cc(=O)oc2cc(O)ccc12,"inconclusive: 10 µM [quencher, side channel, partial curve]",
Cc1ccc(-c2ccc(NC(=O)C3C4C=CC(C4)C3C(=O)O)cc2)o1 (stereo not drawn),"inconclusive: 20 µM [quencher, side channel, single point]",
